# According to article PMC4336329 (PLoS ONE, 2015):
# Among all 310,000 compounds or so, about 2,200 (0.71%) showed an effect of 50% or more. The effect is printed as a negative number. The list shows a part of the results.
# Molecular target: human ether-à-go-go-related gene (hERG) potassium channel (human, UniProt Q12809)
# Assay: primary screen, population patch clamp on CHO cells stably expressing hERG
# human ether-à-go-go-related gene (hERG) potassium channel, sequence (Q12809 whole entry, looked up): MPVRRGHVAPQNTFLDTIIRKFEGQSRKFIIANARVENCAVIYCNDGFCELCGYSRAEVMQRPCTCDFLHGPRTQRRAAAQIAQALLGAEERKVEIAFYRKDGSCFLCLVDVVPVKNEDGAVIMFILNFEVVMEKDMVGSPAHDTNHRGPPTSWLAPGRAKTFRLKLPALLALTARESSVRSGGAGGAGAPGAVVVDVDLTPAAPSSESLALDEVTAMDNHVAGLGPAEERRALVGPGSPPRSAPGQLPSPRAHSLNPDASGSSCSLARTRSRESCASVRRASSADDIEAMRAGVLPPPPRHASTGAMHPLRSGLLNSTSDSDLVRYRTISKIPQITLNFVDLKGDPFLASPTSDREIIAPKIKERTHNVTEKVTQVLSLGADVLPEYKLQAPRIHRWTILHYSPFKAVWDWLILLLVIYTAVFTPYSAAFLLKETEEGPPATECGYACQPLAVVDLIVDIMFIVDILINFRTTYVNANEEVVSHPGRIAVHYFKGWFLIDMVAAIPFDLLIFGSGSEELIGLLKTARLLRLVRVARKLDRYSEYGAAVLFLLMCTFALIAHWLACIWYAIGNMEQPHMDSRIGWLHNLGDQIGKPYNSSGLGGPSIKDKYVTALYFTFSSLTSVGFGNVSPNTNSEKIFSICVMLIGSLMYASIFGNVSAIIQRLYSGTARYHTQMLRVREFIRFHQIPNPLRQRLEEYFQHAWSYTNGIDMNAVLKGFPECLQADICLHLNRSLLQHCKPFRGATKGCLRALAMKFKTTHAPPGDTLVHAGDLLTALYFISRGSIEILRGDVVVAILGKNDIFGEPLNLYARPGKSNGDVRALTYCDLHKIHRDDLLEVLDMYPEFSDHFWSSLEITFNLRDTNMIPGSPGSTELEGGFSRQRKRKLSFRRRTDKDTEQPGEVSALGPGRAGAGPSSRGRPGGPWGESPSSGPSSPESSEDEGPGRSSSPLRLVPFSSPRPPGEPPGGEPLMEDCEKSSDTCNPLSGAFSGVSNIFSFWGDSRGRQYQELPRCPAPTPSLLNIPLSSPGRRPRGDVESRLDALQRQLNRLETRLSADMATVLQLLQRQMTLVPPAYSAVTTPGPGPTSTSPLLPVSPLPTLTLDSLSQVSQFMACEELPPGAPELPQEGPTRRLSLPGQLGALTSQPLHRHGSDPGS
row,SMILES,"hERG current change (%, negative = inhibition) at 1uM"
1,CCN(CCn1cccn1)Cc1nc(Cc2cccc(F)c2)no1,5.58%
2,CCOC(=O)c1cc(C#N)c(SC)nc1-c1ccccc1,17%
3,O=C(CSc1nc2ccccc2s1)Nc1cc(S(=O)(=O)N2CCOCC2)ccc1O,4.06%
4,Cc1cc(C)cc(NC(=O)Cc2ccc(S(=O)(=O)N3CCCC3)s2)c1,-0.0487%
5,Cc1ccc(C(=O)Nc2cccc(C(=O)NCc3ccccc3)c2)cc1,11.8%
6,COc1ccc(CCNC(=O)CC(c2ccccc2)c2cccc(C)c2O)cc1OC (stereo not drawn),6%
7,CCn1cc(C(=O)NCCCO)c(=O)c2cc(F)c(N3CCN(C)CC3)cc21.Cl,2.01%
8,Cn1c(C(=O)OCC(=O)NCc2ccco2)cc2sccc21,3.82%
9,Cc1c(Cl)cnc(NC(=O)COC(=O)Cc2coc3ccc4ccccc4c23)c1Cl,-6%
10,O=c1cccc2n1CC1CC2CN(Cc2cccc(Cl)c2Cl)C1 (stereo not drawn),-7.2%
11,CC1(C)Oc2ccc(C(=O)N3CCCCC3)cc2N(CC(=O)NCc2ccccc2)C1=O,1.75%
12,CNC(=O)c1csc(Cc2c(Cl)sc3ccc(Cl)cc23)n1,3.65%
13,Cn1cc(C(=O)NCc2cccnc2)c(=O)c2cc(S(=O)(=O)N3CCCCCC3)ccc21,13.9%
14,CCOc1ccccc1-c1nn2c(Cc3ccccc3)nnc2s1,11.6%
15,CCc1noc(C)c1C(=O)N1CCOCC1,12.1%
16,Cc1cc(C)nc(/N=C(\N)Nc2ccc(OCc3ccccc3)cc2)n1,-28.8%
17,CCOc1ccc(-c2c(C(=O)N/N=C/c3c[nH]c4ccccc34)nnn2-c2nonc2N)cc1,17.5%
18,O=C(Cc1c[nH]c2ccccc12)N/N=C/c1ccccc1O,6.75%
19,CN(Cc1ccccc1)C(=O)CN1C(=O)NC(C)(c2ccc(Cl)cc2)C1=O (stereo not drawn),12.8%
20,CCOC(=O)c1sc(NC(=O)CSc2nc(C)cc(C)n2)c(C#N)c1C,8.65%
21,CCOC(=O)N1CCN(C2=C(NS(=O)(=O)c3ccccc3)C(=O)c3ccccc3C2=O)CC1,0.237%
22,Cc1cccc(C)c1N(CC(=O)N1CCN(C)CC1)S(C)(=O)=O,22.4%
23,CCOC(=O)C(Cc1ccccc1)c1ccnc2ncnn12 (stereo not drawn),7.6%
24,COc1ccc(CNC(=O)CC(C)S(=O)(=O)c2ccc3c(c2)NC(=O)CO3)cc1 (stereo not drawn),16.1%
